The shares of active, inactive and inconclusive entries below differ from those in the screen. For part of these data: No potency is given beside an inconclusive call; the fits are too rough. Activity calls are given as the source filed them. Unless noted, calls follow the shape of the dose curve; as a rule, active = well fitted curve in the direction sought with a large enough effect; inconclusive = small, poorly fitted or top-dose-only effect, or another doubt; inactive = no such curve, though single readings can be large; an effect the other way counts as inactive or inconclusive.
Columns and labels:
[1] = Primary redox qHTS assay for identification of artifact compounds. (AID 1845223); also: potency is read from the fitted curve at half-maximal effect
Outline: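 Amplex Red (25 uM) and HRP (250 mU/mL) in HBSS, with compounds for 15 min, then 250 uM DTT for 30 min, room temperature, dark. Fluorescence 525/598 nm read; normalized to DMSO and 10 uM DA3003; Hill fit.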

[2] = qHTS assay to identify inhibitors of the type 1 interferon - major histocompatibility complex class I in skeletal muscle: Counter screen cell viability and HiBit confirmation (AID 1347412); settings: iHSKM muscle cells + IFN-b, HiBiT or CellTiter-Glo, 24 h; also: potency is read from the fitted curve at half-maximal effect; nearly all actives have a fitted effect of over 60% in size
Outline: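 Duplicate plates, pinned identically: one read for HiBiT-tagged endogenous HLA-B luminescence, the other for ATP-content viability via CellTiter Glo. Cells were genome-engineered human myoblasts given 4 ng/ml IFN-b; compounds 12-pt, 1:3 from 46 uM final; 24 hr exposure.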

[3] = molecular target: Cytochrome P450 2C9 (Homo sapiens) (UniProt P11712); experiment: Cytochrome P450 family 2 subfamily C member 9 (CYP2C9) small molecule antagonists: luciferase biochemical (cell-free) qHTS assay (AID 1645842; active = well fitted curve in the direction sought with a large enough effect in the repeat runs; inconclusive = weak or mixed curves; inactive = no such curve, though single readings can be large; an effect the other way counts as inactive or inconclusive; also: nearly all actives have a fitted effect of over 55% in size; also: potency is read from the fitted curve at half-maximal effect; as to activity change, negative = inhibition: % is scaled to controls: 0 for no effect and ±100 for the full control effect)
UniProt P11712, sequence (P11712 whole entry, looked up): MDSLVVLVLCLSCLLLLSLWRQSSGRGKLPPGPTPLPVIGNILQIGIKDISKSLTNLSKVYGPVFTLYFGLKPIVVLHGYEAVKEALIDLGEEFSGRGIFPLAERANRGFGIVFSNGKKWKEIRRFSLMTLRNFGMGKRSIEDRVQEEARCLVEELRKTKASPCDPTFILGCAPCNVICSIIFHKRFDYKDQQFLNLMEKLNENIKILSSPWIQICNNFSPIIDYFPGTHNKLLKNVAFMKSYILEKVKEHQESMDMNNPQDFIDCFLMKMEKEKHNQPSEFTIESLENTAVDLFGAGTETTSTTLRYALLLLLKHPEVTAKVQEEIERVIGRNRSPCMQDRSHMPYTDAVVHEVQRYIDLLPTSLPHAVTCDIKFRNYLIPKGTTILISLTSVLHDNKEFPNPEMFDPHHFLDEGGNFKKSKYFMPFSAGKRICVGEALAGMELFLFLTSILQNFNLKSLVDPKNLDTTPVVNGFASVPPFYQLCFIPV
Outline: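 Luminescence, after 20 min with luciferin detection reagent, reflected CYP2C9 turnover during a 1 h NADPH-driven reaction at 37C. Enzyme-substrate mix contained 0.4% bovine serum albumin and was preincubated with compound 10 min at room temperature.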

[4] = molecular target: Luciferin 4-monooxygenase (Photinus pyralis) (UniProt P08659); experiment: Primary firefly luciferase (FLuc) qHTS assay for identification of artifact compounds. (AID 1845220); also: potency is read from the fitted curve at half-maximal effect; nearly all actives have a fitted effect of over 60% in size
Outline: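 Cell-free, 1536-well qHTS. Buffer pH 7.6 with 0.01% Tween-20 and 0.05% BSA; 10 uM D-luciferin, 10 uM ATP; 10 nM P. pyralis luciferase; luminescence after 5 min.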

[5] = qHTS of pediatric cancer cell lines to identify multiple opportunities for drug repurposing: Primary screen for SK-N-MC cells (AID 1347093); settings: SK-N-MC viability, CellTiter-Glo luminescence, 48 h; activity change, negative = cytotoxic: at 46 µM (top of the series); also: potency is read from the fitted curve at half-maximal effect
Outline: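 Metabolically active cells were quantified by ATP-dependent luminescence (CellTiter-Glo, 15 min at room temperature) following 48 h treatment. Cells had been plated at 500-1,000 per well and settled for 5 h beforehand.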

[6] = qHTS of pediatric cancer cell lines to identify multiple opportunities for drug repurposing: Primary screen for BT-12 cells (AID 1347101); also: nearly all actives have a fitted effect of over 25% in size; also: potency is read from the fitted curve at half-maximal effect;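 as to activity change, negative = cytotoxic: plate controls were DMSO for no effect and bortezomib positive control for full effect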
Outline: (§1)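 Cells (500-1,000/well) rested 5 h, then received compounds for 48 h; metabolically active cells were measured by CellTiter-Glo luminescence. Final concentrations spanned up to 46 µM (MIPE, 11-point) or 0.59 nM-46 µM (NPC, 8-point) in primary screens, 11-point in follow-ups.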

[7] = qHTS of pediatric cancer cell lines to identify multiple opportunities for drug repurposing: Primary screen for OHS-50 cells (AID 1347103); also: potency is read from the fitted curve at half-maximal effect; nearly all actives have a fitted effect of over 40% in size
Outline: as §1

[8] = qHTS to identify inhibitors of the type 1 interferon - major histocompatibility complex class I in skeletal muscle: primary screen against the NCATS Pharmaceutical Collection (AID 1347407); settings: human skeletal muscle cells, IFN-b-induced MHC-I HiBiT luminescence, 24 h; activity change, negative = inhibition: at 45.9 µM (top of the series);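 also: luminescence of HiBiT knocked into endogenous HLA-B as interferon-induced MHC class I level; potency is read from the fitted curve at half-maximal effect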
Outline: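 HLA-B HiBiT myoblasts, dexamethasone-free growth medium + 4 ng/ml IFN-b; compounds pinned 1 h after seeding, […] from 46 uM; 24 h, 37 C, 5% CO2; lytic HiBiT detection, 10 min RT, luminescence.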

UISO = experiment: qHTS assay to identify novel small-molecules to repurpose for Merkel cell carcinoma treatment (AID 1296009); settings: MCC and control cell lines, CellTiter-Glo viability, 72 h; activity change, negative = cytotoxicity: at 46 µM (top of the series); also: nearly all actives have a fitted effect of over 60% in size; also: potency is read from the fitted curve at half-maximal effect; as to activity change, negative = cytotoxicity: % is scaled to controls: 0 for no effect and ±100 for the full control effect
Outline: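 After compound transfer in DMSO, plates were kept 72 hr at 37 degree celsius. Luminescent ATP signal from CellTiter-Glo served as viability measure, normalized against DMSO and no-cell controls.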

[9] = qHTS of pediatric cancer cell lines to identify multiple opportunities for drug repurposing: Primary screen for Saos-2 cells (AID 1347097); settings: Saos-2 viability, CellTiter-Glo ATP luminescence, 48 h; activity change, negative = cytotoxic: at 46 µM (top of the series); also: nearly all actives have a fitted effect of over 40% in size; also: potency is read from the fitted curve at half-maximal effect; as to activity change, negative = cytotoxic: % is scaled to controls: 0 for no effect and ±100 for the full control effect
Outline: (§2)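 Following a 5-hour attachment period, cells at 500-1,000/well received compounds and were cultured for 48 hours. CellTiter-Glo was added and luminescence read to estimate viable, metabolically active cells.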

[10] = Drug repurposing screens with cells derived from glioblastoma tumor samples (AID 1345199); settings: GBM patient neurospheres viability, ATP luminescence, 48 h; Potency: tumour line A unless noted; activity, negative = cell killing: at 46 µM (top of the series), tumour line A unless noted; also: potency is read from the fitted curve at half-maximal effect; nearly all actives have a fitted effect of over 40% in size
Outline: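 Four patient lines of CD133+ GBM neurospheres were screened at several concentrations; hits were retested in those lines plus three slower-growing GBM lines, using 48-hour treatment and ATP-based viability.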

[11] = qHTS to identify inhibitors of the type 1 interferon - major histocompatibility complex class I in skeletal muscle: primary screen against the NCATS Mechanism Interrogation Plate v5.0 (MIPE) Libary (AID 1347411); settings: iHSKM cells + IFN-b, HiBiT-tagged MHC-I luminescence, 24 h; activity change, negative = inhibition: at 45.8 µM (top of the series); also: potency is read from the fitted curve at half-maximal effect; nearly all actives have a fitted effect of over 65% in size
Outline: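 Cells were genome-edited human myoblasts carrying a HiBit tag on endogenous HLA-B. They were treated with IFN-beta (4.0 ng/ml) and titrated compounds (top 46 uM) for 24 hrs before lytic HiBiT detection.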

[12] = test system: Zika virus NS2B-NS3 protease (linked construct); experiment: Primary screen NINDS Rhodamine qHTS for Zika virus inhibitors (AID 1347160); also: % is scaled to controls: 0 for no effect and ±100 for the full control effect; nearly all actives have a fitted effect of over 55% in size
Outline: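 Kinetic fluorescence (Ex 480 nm, Em 540 nm) over 15 min with 1.5 microM Rhodamine110 peptide and 25 nM linked protease.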

[13] = Primary fluorescence-based thiol-reactive (MSTI) qHTS assay for identification of artifact compounds. (AID 1845221); also: potency is read from the fitted curve at half-maximal effect;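 also: thiol-reactive compounds lower the probe fluorescence signal; nearly all actives have a fitted effect of over 65% in size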
Outline: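 qHTS titration of compound; 4 uM MSTI, PBS pH 7.4, 2% DMSO; 1 h RT, dark; fluorescence 525/598 nm; normalized to Acetyl-MSTI and MSTI; 4-parameter Hill fit.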

[14] = qHTS of pediatric cancer cell lines to identify multiple opportunities for drug repurposing: Primary screen for RD cells (AID 1347104); also: nearly all actives have a fitted effect of over 55% in size; also: potency is read from the fitted curve at half-maximal effect;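 as to activity change, negative = cytotoxic: plate controls were DMSO for no effect and bortezomib for full effect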
Outline: as §2

[15] = Primary qHTS for small molecule stabilizers of the endoplasmic reticulum resident proteome: Secreted ER Calcium Modulated Protein (SERCaMP) assay (AID 1508630); settings: SH-SY5Y GLuc-SERCaMP (Gaussia luciferase released on ER calcium loss) secretion, thapsigargin, luminescence; activity change, negative = inhibition: at 38.4 µM (top of the series); also: potency is read from the fitted curve at half-maximal effect
Outline: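 GLuc-SERCaMP-expressing SH-SY5Y cells, pretreated 16 h with compound, are challenged with thapsigargin to empty ER calcium stores; after 4 h, coelenterazine is added directly to the medium and luminescence is imaged.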

[16] = qHTS of pediatric cancer cell lines to identify multiple opportunities for drug repurposing: Primary screen for Rh18 cells (AID 1347102); also: potency is read from the fitted curve at half-maximal effect; nearly all actives have a fitted effect of over 65% in size
Outline: as §1

[17] = molecular target: Calcium and integrin-binding protein 1 (Homo sapiens) (UniProt Q99828); experiment: Primary qHTS for Identification of Calcium Integrin Binding Protein 1 (CIB1) Competitor (AID 1508620);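 also: GST tagged CIB1 binding a fluorescein labelled alphaIIb integrin peptide tracer; top concentration of the series differs between compounds; % is scaled to controls: 0 for no effect and ±100 for the full control effect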
UniProt Q99828, sequence (Q99828 whole entry, looked up): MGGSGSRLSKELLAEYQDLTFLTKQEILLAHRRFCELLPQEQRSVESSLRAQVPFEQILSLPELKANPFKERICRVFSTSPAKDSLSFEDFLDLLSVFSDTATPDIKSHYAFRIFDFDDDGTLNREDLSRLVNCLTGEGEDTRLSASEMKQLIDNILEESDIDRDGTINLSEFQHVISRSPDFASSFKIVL
Outline: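 CIB1-GST (1 uM final) and compound incubated 15 min at room temperature before adding FITC-alphaIIb peptide tracer (100 nM final). Competition for binding read by fluorescence polarization (ex 480, em 540) after another 15 min at room temperature.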
Tags tell the direction and shape of the fitted curve.

In the case of CCc1cc(C(N)=O)ccc1-n1nc(C(C)C)c2c(-n3cnc(-c4cnn(C)c4)c3)ccnc21, the Potency [1] is reported as inconclusive [activator, partial curve, poor fit], the Potency ([2]; HiBiT) is reported as inconclusive [inhibitor, full curve] and the Potency ([2]; Viability) is reported as inconclusive [cytotoxic, full curve].
In the case of FC(F)(F)c1ccc(/C=C/c2nc(COc3ccc(CCCCn4ccnn4)cc3)co2)cc1, the Potency [3] is reported as inconclusive [inhibitor, full curve].
In the case of CCN1CCN(Cc2ccc(NC(=O)c3ccc(C)c(NC(=O)c4cncc(-c5cccs5)c4)c3)cc2C(F)(F)F)CC1, the Potency [3] is reported as inconclusive [inhibitor, single point], the Potency [4] is reported as inconclusive [inhibitor, single point] and the Potency ([2]; HiBiT) is reported as active: 5.57 µM. For the same molecule, the Potency ([2]; Viability) was active: 12.5 µM.
With CC(=O)Oc1ccc2c(c1)CC[C@@H]1[C@@H]2CC[C@]2(C)[C@@H](O)CC[C@@H]12 the Potency [5] was inconclusive [cytotoxic, single point], the Potency [6] was inconclusive [cytotoxic, partial curve, poor fit] and the Potency [7] was inconclusive [cytotoxic, partial curve]. The Potency [8] was inconclusive [inhibitor, single point] and the Potency (UISO) was inconclusive [inhibitor, partial curve, poor fit].
With CS(=O)(=O)c1ccc([C@@H](O)[C@@H](CF)NC(=O)C(Cl)Cl)cc1 the Potency [9] was “inactive”, the Potency [6] was inconclusive [cytotoxic, partial curve, poor fit] and the Potency [3] was “inactive”. The Potency [1] was “inactive” and the Potency [10] was inconclusive [inhibitor, partial curve, poor fit].
In the case of COc1ccc(CNC(=O)Nc2ncc([N+](=O)[O-])s2)cc1, the Potency [11] is reported as active: 18.6 µM and the Potency [4] is reported as inconclusive [inhibitor, partial curve].
With Nc1nc(Nc2ccc3c(c2)CCC(N2CCCC2)CC3)nn1-c1cc2c(nn1)-c1ccccc1CCC2 (stereo not given) the Potency [12] was “inactive” and the Potency [13] was inconclusive [inhibitor, partial curve].
In the case of C[C@]12CC[C@@H]3c4ccc(O)cc4C[C@@H](CCCCCCCCCS(=O)CCCC(F)(F)C(F)(F)F)[C@H]3[C@@H]1CC[C@@H]2O (stereo not given in full), the Potency [5] is reported as active: 9.44 µM, the Potency [9] is reported as inconclusive [cytotoxic, partial curve] and the Potency [7] is reported as inconclusive [cytotoxic, partial curve]. The Potency [14] was “inactive”, the Potency [15] was inconclusive [inhibitor, partial curve, poor fit] and the activity change, negative = cytotoxicity (UISO) was inconclusive: -34.8% [inhibitor].
In the case of CCCOC(C(=O)OC1CCN(C)CC1)(c1ccccc1)c1ccccc1, the Potency [9] is reported as inconclusive [cytotoxic, single point], the Potency [6] is reported as “inactive” and the Potency [16] is reported as inconclusive [cytotoxic, partial curve]. For the same molecule, the Potency [14] was inconclusive [cytotoxic, single point], the Potency [8] was inconclusive [inhibitor, single point] and the Potency [15] was inconclusive [inhibitor, partial curve, poor fit].
For Cc1ccc(OC[C@H](O)[C@H](C)NC(C)C)c2c1CCC2, the Potency [17] was “inactive” and the Potency [15] was inconclusive [inhibitor, single point].
In the case of CC1(C)CC[C@]2(C(=O)O[C@@H]3O[C@H](CO)[C@@H](O)[C@H](O)[C@H]3O)CC[C@]3(C)C(=CCC4[C@@]5(C)CC[C@H](O[C@@H]6O[C@H](C(=O)O)[C@@H](O[C@@H]7O[C@H](CO)[C@@H](O)[C@H](O)[C@H]7O)[C@H](O)[C@H]6O[C@@H]6O[C@H](CO)[C@@H](O)[C@H](O)[C@H]6O)C(C)(C)C5CC[C@]43C)C2C1 (stereo not given in full), the activity change, negative = thiol reactive [13] is reported as inactive: 240% [at 11.5 µM].
In the case of O=C(Nc1nc2ccc([N+](=O)[O-])cc2s1)C1CCCCC1, the Potency [4] is reported as inconclusive [inhibitor, partial curve, poor fit] and the Potency [13] is reported as inconclusive [inhibitor, full curve].
In the case of CCCCC(=O)OCC(=O)[C@H]1[C@H](C)C[C@H]2[C@@H]3C[C@H](F)C4=CC(=O)C=C[C@]4(C)[C@@]3(F)[C@@H](O)C[C@@]21C, the Potency [6] is reported as “inactive”, the Potency [7] is reported as inconclusive [cytotoxic, partial curve, poor fit] and the Potency [14] is reported as “inactive”. For the same molecule, the Potency [8] was inconclusive [inhibitor, full curve, poor fit], the Potency [10] was inconclusive [inhibitor, partial curve] and the Potency ([2]; HiBiT) was inconclusive [inhibitor, full curve, poor fit].
